Data from paper PMC2884980.
No constants are given. Whether binding was seen depends on the method and setting. For part of these data: Binding seen in cells or lysates may run through a third protein. Some entries that bind do so weakly or less than the wild type.

Tests used:
[1] = molecular target: Adenovirus preterminal protein (pTP), baculovirus-expressed, purified (UniProt P03269); assay: pull-down; reverse pull-down: purified baculovirus-expressed pTP or DBP immobilised on Sepharose columns; uninfected HeLa cell lysates; Western blot with anti-B23.1 (Fig. 1c); only the target purified
[2] = molecular target: Adenovirus preterminal protein (pTP), baculovirus-expressed, purified (UniProt P03269); assay: co-IP; mixture containing only recombinant B23.1 and pTP; anti-B23.1 or anti-pTP antibody with protein G-agarose; Western blot for B23.1; both purified
[3] = molecular target: B23 1-160, purified recombinant (human) (UniProt P06748); assay: pull-down; purified His-tagged B23.1, B23.2 or B23 1-160 (50 ug) coupled to CNBr-activated Sepharose; extracts of Ad2-infected HeLa cells (18 h post-infection, sonicated in PBS/1 % NP-40) passed over; PBS washes; elution in SDS loading buffer; Western blot for pTP or DBP; only the target purified
[4] = molecular target: Nucleolar protein B23.1, His6-tagged, recombinant (human) (UniProt P06748); assay: as above
[5] = molecular target: Nucleolar protein B23.2, His6-tagged, recombinant (human) (UniProt P06748); assay: as above

Endogenous B23.1 of uninfected HeLa cells (from UniProt P06748 1-294)
binding [1]: binds

Nucleolar protein B23.1, His6-tagged, recombinant (from UniProt P06748 1-294)
binding [2]: binds

Adenovirus DNA-binding protein (DBP) from Ad2-infected HeLa cells (from UniProt P03264 1-529)
binding [3]: binds

Adenovirus preterminal protein (pTP) from Ad2-infected HeLa cells (from UniProt P03269 1-671)
binding [3]: binds
binding [4]: binds
binding [5]: no binding
